This is one part of the list. The full chains were built here from the parent and the listed change. Inactive controls read about 0.05.
B1: TEV protease; numbered along this chain (parent)
chain: MGESLFKGPRDYNPISSSICHLTNESDGHTTSLYGIGFGPFIITNKHLFRRNNGTLVVQSLHGVFKVKDTTTLQQHLVDGRDMIIIRMPKDFPPFPQKLKFREPQREERICLVTTNFQTKSMSSMVSDTSCTFPSGDGIFWKHWIQTKDGQCGSPLVSTRDGFIVGIHSASNFTNTNNYFTSVPKNFMELLTNQEAQQWVSGWRLNADSVLWGGHKVFMVKPEEPFQPVKEATQL

Variants of: B1
Test: raw area under fraction-flipped curve 0-4 h after induction (AUC4h, not background-subtracted), DNA-recorder readout of cleavage of the substrate (dimensionless); higher = more cleavage of the substrate by the protease variant
Conditions: temperature: 34 °C; time window: 0-4 h after rhamnose induction
Experimental: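 In vivo DNA recorder in E. coli TOP10(DE3) ΔrhaA at 34 °C. Each TEVp single-site mutant (parent TEVp 0) is paired with a single-site variant of the 7-mer TEVs (canonical ENLYFQ|S). The substrate sits between flexible linkers in a Bxb1-sfGFP-TEVs-SsrA fusion, so cleavage stabilises Bxb1 and speeds flipping of a recombination array, read by NGS. The value is the raw area under the fraction-flipped curve over 0-4 h after rhamnose induction (AUC4h), with ≥20 reads per time point. It is not background-subtracted; inactive controls average about 0.047.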
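Note: Bxb1 expression induced with 0.2% (w/v) L-rhamnose at OD600 near 0.5, cultures sampled hourly, flipped fraction per protease–substrate barcode pair counted by paired-end Illumina sequencing.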

Variant	area with substrate ENLYFCS	area with substrate ENLYFDS	area with substrate ENLYFFS	area with substrate ENLYFIS	area with substrate ENLYFMS	area with substrate ENLYFNS	area with substrate ENLYFPS	area with substrate ENLYFTS	area with substrate ENLYFVS	area with substrate ENLYFWS	area with substrate ENLYFHS	area with substrate ENLYFSS	area with substrate ENLYFYS	area with substrate ENLYFES	area with substrate ENLYFKS	area with substrate ENLYFRS	area with substrate ENLYFGS	area with substrate ENLYFLS
MGESLFKGPRDYNPISSSICHLTNESDGHTTSLYGIGFGPFIITNKHLFRRNNGTLVVQSLHGVFKVKDTTTLQQHLVDGRDMIIIRMPKDFPPFPQKLKFREPQREERICLVTTNFQTKSMSSMVSDTSCTFKSGDGIFWKHWIQTKDGQCGSPLVSTRDGFIVGIHSASNFTNTNNYFTSVPKNFMELLTNQEAQQWVSGWRLNADSVLWGGHKVFMVKPEEPFQPVKEATQL [P134K]	0.0608	0.0484	0.0916	0.0624	0.0538	0.0709	0.0682	0.0599	0.0488	0.0514								
MGESLFKGPRDYNPISSSICHLTNESDGHTTSLYGIGFGPFIITNKHLFRRNNGTLVVQSLHGVFKVKDTTTLQQHLVDGRDMIIIRMPKDFPPFPQKLKFREPQREERICLVTTNFQTKSMSSMVSDTSCTFSSGDGIFWKHWIQTKDGQCGSPLVSTRDGFIVGIHSASNFTNTNNYFTSVPKNFMELLTNQEAQQWVSGWRLNADSVLWGGHKVFMVKPEEPFQPVKEATQL [P134S]	0.0579		0.0714	0.0563	0.0604	0.0665	0.0467				0.0672	0.0544	0.0607					
MGESLFKGPRDYNPISSSICHLTNESDGHTTSLYGIGFGPFIITNKHLFRRNNGTLVVQSLHGVFKVKDTTTLQQHLVDGRDMIIIRMPKDFPPFPQKLKFREPQREERICLVTTNFQTKSMSSMVSDTSCTFPQGDGIFWKHWIQTKDGQCGSPLVSTRDGFIVGIHSASNFTNTNNYFTSVPKNFMELLTNQEAQQWVSGWRLNADSVLWGGHKVFMVKPEEPFQPVKEATQL [S135Q]	0.0282		0.0644	0.0596	0.0633	0.0812	0.0558	0.0589		0.0612	0.065	0.0508		0.0509	0.0686	0.0505		
MGESLFKGPRDYNPISSSICHLTNESDGHTTSLYGIGFGPFIITNKHLFRRNNGTLVVQSLHGVFKVKDTTTLQQHLVDGRDMIIIRMPKDFPPFPQKLKFREPQREERICLVTTNFQTKSMSSMVSDTSCTFPSGEGIFWKHWIQTKDGQCGSPLVSTRDGFIVGIHSASNFTNTNNYFTSVPKNFMELLTNQEAQQWVSGWRLNADSVLWGGHKVFMVKPEEPFQPVKEATQL [D137E]	0.0396	0.0626	0.0649	0.0614	0.0651	0.0501	0.039	0.0586		0.0504				0.0693	0.0663	0.0387	0.07	0.0556
MGESLFKGPRDYNPISSSICHLTNESDGHTTSLYGIGFGPFIITNKHLFRRNNGTLVVQSLHGVFKVKDTTTLQQHLVDGRDMIIIRMPKDFPPFPQKLKFREPQREERICLVTTNFQTKSMSSMVSDTSCTFPSGDGEFWKHWIQTKDGQCGSPLVSTRDGFIVGIHSASNFTNTNNYFTSVPKNFMELLTNQEAQQWVSGWRLNADSVLWGGHKVFMVKPEEPFQPVKEATQL [I139E]	0.0755	0.0566	0.0811	0.0567			0.0494		0.0548	0.0601				0.0709	0.0599	0.0561		
MGESLFKGPRDYNPISSSICHLTNESDGHTTSLYGIGFGPFIITNKHLFRRNNGTLVVQSLHGVFKVKDTTTLQQHLVDGRDMIIIRMPKDFPPFPQKLKFREPQREERICLVTTNFQTKSMSSMVSDTSCTFPSGDGIFWKIWIQTKDGQCGSPLVSTRDGFIVGIHSASNFTNTNNYFTSVPKNFMELLTNQEAQQWVSGWRLNADSVLWGGHKVFMVKPEEPFQPVKEATQL [H143I]	0.0436	0.0433	0.0604	0.0614	0.0658		0.0422			0.0409		0.0535						0.0639
MGESLFKGPRDYNPISSSICHLTNESDGHTTSLYGIGFGPFIITNKHLFRRNNGTLVVQSLHGVFKVKDTTTLQQHLVDGRDMIIIRMPKDFPPFPQKLKFREPQREERICLVTTNFQTKSMSSMVSDTSCTFPSGDGIFWKHWHQTKDGQCGSPLVSTRDGFIVGIHSASNFTNTNNYFTSVPKNFMELLTNQEAQQWVSGWRLNADSVLWGGHKVFMVKPEEPFQPVKEATQL [I145H]	0.067	0.0637	0.0687	0.0551			0.058	0.057		0.0601		0.0504		0.0482	0.059	0.0519	0.04	
MGESLFKGPRDYNPISSSICHLTNESDGHTTSLYGIGFGPFIITNKHLFRRNNGTLVVQSLHGVFKVKDTTTLQQHLVDGRDMIIIRMPKDFPPFPQKLKFREPQREERICLVTTNFQTKSMSSMVSDTSCTFPSGDGIFWKHWIQLKDGQCGSPLVSTRDGFIVGIHSASNFTNTNNYFTSVPKNFMELLTNQEAQQWVSGWRLNADSVLWGGHKVFMVKPEEPFQPVKEATQL [T147L]	0.0597	0.0576	0.0754	0.0516	0.0548	0.0972	0.056	0.0647	0.0551	0.0497	0.0537		0.057	0.0429	0.062	0.0556	0.0572	0.0594
MGESLFKGPRDYNPISSSICHLTNESDGHTTSLYGIGFGPFIITNKHLFRRNNGTLVVQSLHGVFKVKDTTTLQQHLVDGRDMIIIRMPKDFPPFPQKLKFREPQREERICLVTTNFQTKSMSSMVSDTSCTFPSGDGIFWKHWIQTSDGQCGSPLVSTRDGFIVGIHSASNFTNTNNYFTSVPKNFMELLTNQEAQQWVSGWRLNADSVLWGGHKVFMVKPEEPFQPVKEATQL [K148S]	0.0754	0.0527		0.0635		0.059					0.0574			0.0596			0.059	0.0229
MGESLFKGPRDYNPISSSICHLTNESDGHTTSLYGIGFGPFIITNKHLFRRNNGTLVVQSLHGVFKVKDTTTLQQHLVDGRDMIIIRMPKDFPPFPQKLKFREPQREERICLVTTNFQTKSMSSMVSDTSCTFPSGDGIFWKHWIQTKDGQCESPLVSTRDGFIVGIHSASNFTNTNNYFTSVPKNFMELLTNQEAQQWVSGWRLNADSVLWGGHKVFMVKPEEPFQPVKEATQL [G153E]	0.0651	0.0519		0.0366	0.0559	0.0528		0.0683						0.0409				
